# Assay results: the supplement of paper PMC12217912
# Some of the results follow. The full chains were built here from the parent and the listed change. Values near 0.05 are background.
# B1: TEV protease; numbered along this chain (parent)
# chain: MGESLFKGPRDYNPISSSICHLTNESDGHTTSLYGIGFGPFIITNKHLFRRNNGTLVVQSLHGVFKVKDTTTLQQHLVDGRDMIIIRMPKDFPPFPQKLKFREPQREERICLVTTNFQTKSMSSMVSDTSCTFPSGDGIFWKHWIQTKDGQCGSPLVSTRDGFIVGIHSASNFTNTNNYFTSVPKNFMELLTNQEAQQWVSGWRLNADSVLWGGHKVFMVKPEEPFQPVKEATQL
# Variants of: B1
# Experiment: raw area under fraction-flipped curve 0-4 h after induction (AUC4h, not background-subtracted), DNA-recorder readout of cleavage of the substrate (dimensionless); higher = more cleavage of the substrate by the protease variant
# Details: temperature: 34 °C; time window: 0-4 h after rhamnose induction
# Description: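 In vivo DNA recorder in E. coli TOP10(DE3) ΔrhaA at 34 °C. Each TEVp single-site mutant (parent TEVp 0) is paired with a single-site variant of the 7-mer TEVs (canonical ENLYFQ|S). The substrate sits between flexible linkers in a Bxb1-sfGFP-TEVs-SsrA fusion, so cleavage stabilises Bxb1 and speeds flipping of a recombination array, read by NGS. The value is the raw area under the fraction-flipped curve over 0-4 h after rhamnose induction (AUC4h), with ≥20 reads per time point. It is not background-subtracted; inactive controls average about 0.047.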
# 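Note: Bxb1 expression induced with 0.2% (w/v) L-rhamnose at OD600 near 0.5, cultures sampled hourly, flipped fraction per protease–substrate barcode pair counted by paired-end Illumina sequencing.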
Variant,area with substrate ENLYDQS,area with substrate ENLYEQS,area with substrate ENLYGQS,area with substrate ENLYHQS,area with substrate ENLYKQS,area with substrate ENLYMQS,area with substrate ENLYNQS,area with substrate ENLYSQS,area with substrate ENLYYQS,area with substrate ENLYIQS,area with substrate ENLYPQS,area with substrate ENLYQQS,area with substrate ENLYRQS,area with substrate ENLYTQS,area with substrate ENLYVQS,area with substrate ENLYWQS,area with substrate ENLYLQS
Q197N,0.0632,0.0412,0.037,0.0655,0.0573,0.0632,0.0649,0.0549,0.066,–,–,–,–,–,–,–,–
Q197F,0.0731,0.073,0.066,–,0.0299,–,–,–,0.079,0.147,0.0767,0.0638,0.057,0.0956,0.168,0.0762,–
G35C,–,0.0568,–,–,–,–,–,–,–,–,–,–,0.0556,0.0486,–,0.0642,–
G35N,–,0.0274,–,–,–,–,–,–,0.0319,–,0.0427,–,–,–,–,0.0387,–
G35Q,–,0.0669,–,0.0496,–,0.0598,0.0474,–,–,0.0568,–,–,–,–,–,0.0455,–
L205D,0.082,0.0609,–,0.0516,–,–,0.0656,0.0572,–,0.0753,0.0484,–,–,–,–,0.0215,–
Y34K,–,0.048,0.0591,0.0657,–,–,0.044,–,–,–,0.0054,–,–,–,0.105,–,–
K100A,–,0.0768,0.063,0.0657,0.0556,0.0975,–,–,0.0618,–,–,–,–,–,–,0.0827,–
T159F,0.0625,–,0.0372,0.0563,–,–,0.0564,–,–,–,0.0581,–,–,0.0799,0.129,0.0586,–
Y179N,0.0626,–,–,0.0297,0.0218,–,–,–,–,–,0.0339,–,–,0.0587,0.0678,–,0.063
L190Q,0.0706,0.0669,0.0811,–,0.0422,0.0918,–,0.0745,–,0.0718,0.0514,0.0804,0.0624,0.062,–,0.0746,0.0904
L190C,0.0618,0.12,0.0592,0.0647,0.0483,–,0.0333,0.0566,0.0679,–,–,0.0411,–,–,0.116,0.111,–
F187W,0.0586,0.0758,0.0516,0.0552,0.0612,0.0685,0.0645,0.0776,–,0.118,0.0636,–,0.0396,0.0727,0.0931,0.0721,0.0896
F180Q,0.0376,–,–,–,0.0261,–,–,–,–,–,0.0533,–,–,–,0.0608,–,–
S182Q,0.0624,0.06,0.0549,0.0585,0.0635,0.0853,0.0509,0.0668,–,0.165,0.0805,0.0725,0.0576,0.102,0.093,0.0588,0.0588
E189H,0.034,0.0544,0.0597,0.064,–,0.0744,0.0645,0.0852,–,0.121,0.0635,0.0625,–,0.114,–,0.0713,0.111
G214Q,0.0662,–,–,–,–,–,–,0.0553,0.047,–,0.092,–,0.0624,–,–,–,0.0666
V210F,0.0552,–,0.0686,0.0868,0.0643,0.0882,–,0.0671,0.055,0.1,–,0.0454,0.0684,–,–,–,–
V210T,0.06,0.0775,0.0663,0.0682,0.0919,0.0584,0.0894,–,–,–,0.0738,0.0686,0.0573,–,0.116,0.0759,–

Variant,area with substrate ENLYDQS,area with substrate ENLYEQS,area with substrate ENLYGQS,area with substrate ENLYHQS,area with substrate ENLYKQS,area with substrate ENLYMQS,area with substrate ENLYNQS,area with substrate ENLYSQS,area with substrate ENLYYQS,area with substrate ENLYIQS,area with substrate ENLYPQS,area with substrate ENLYQQS,area with substrate ENLYRQS,area with substrate ENLYTQS,area with substrate ENLYVQS,area with substrate ENLYWQS,area with substrate ENLYLQS
T181R,0.0548,0.0542,–,0.0449,0.0439,0.0466,–,0.0517,0.0577,0.0463,0.0371,0.0491,0.0492,0.047,0.0506,0.0491,–
S209L,0.0392,–,0.0715,0.0761,0.0663,0.102,0.0657,–,–,0.0796,0.062,0.0454,–,–,–,–,–
A196R,0.0771,–,–,0.0684,–,–,–,–,–,–,–,–,–,–,–,–,–
I164K,0.0658,–,0.0486,–,0.0573,–,–,–,0.0635,–,–,0.0678,–,–,0.029,–,–
I164S,0.0463,0.0537,0.0604,0.047,0.0479,0.05,0.0553,–,0.0502,0.0634,0.0482,–,0.0364,–,0.0515,0.0409,–
D161P,0.0588,–,–,–,–,–,–,0.0428,–,–,–,–,0.0544,–,–,–,–
F218K,0.0699,–,0.0724,0.0514,–,0.0632,0.0596,0.0713,–,0.0578,0.059,–,–,0.07,0.082,–,–
F218A,0.0389,0.0749,0.0546,0.0546,0.0435,0.0695,0.0581,–,0.0584,0.0758,0.0605,–,0.0666,0.0681,0.0936,0.0837,–
F218D,0.0679,–,0.0492,–,0.0763,0.053,0.0429,–,0.0663,0.0661,0.0526,–,–,0.0758,0.0758,–,–
V157M,0.0758,0.0646,0.0721,0.0523,0.0823,0.0729,0.0409,0.0694,–,0.106,0.0692,–,–,0.008,0.114,0.0771,–
E107F,–,0.0684,–,0.0676,0.0537,0.0694,0.0676,–,0.0639,–,0.0777,–,0.0748,–,0.0877,–,0.0875
V200R,0.0519,–,0.0525,0.0238,0.06,0.0547,0.0593,–,0.0553,–,–,–,0.0709,–,0.0941,–,0.0755
N206A,0.0568,–,–,–,0.0211,–,–,–,–,–,–,0.0612,–,–,–,–,–
E231R,0.0594,0.0616,0.0784,0.0708,0.0708,0.0721,0.0741,0.0995,–,0.162,0.0838,–,–,0.078,–,0.0889,0.0894
P184D,0.0623,0.0645,0.0605,–,0.0378,0.079,0.0505,–,–,–,0.0606,0.0479,0.0534,–,–,0.0525,0.0873
P93N,–,0.0477,–,0.0712,0.0516,–,0.0662,–,–,–,–,–,–,–,–,–,–
P93Q,–,0.0608,–,0.066,–,–,0.0747,–,–,0.159,–,–,–,–,–,0.0746,0.0789
K185W,0.0751,0.0611,0.0687,0.0844,0.0669,0.0835,0.0587,0.0745,0.0587,0.113,0.0654,0.0604,0.0561,0.0764,0.0929,0.085,0.0982
